No constants are given. Whether binding was seen depends on the method and setting. Binding seen in cells or lysates may run through a third protein. Some entries that bind do so weakly or less than the wild type.

Amino acid sequences for entries named in this document (tags omitted). A change or cut given only in a name is not applied to a line headed by its entry. Residues count along the entry.
UniProt P23819: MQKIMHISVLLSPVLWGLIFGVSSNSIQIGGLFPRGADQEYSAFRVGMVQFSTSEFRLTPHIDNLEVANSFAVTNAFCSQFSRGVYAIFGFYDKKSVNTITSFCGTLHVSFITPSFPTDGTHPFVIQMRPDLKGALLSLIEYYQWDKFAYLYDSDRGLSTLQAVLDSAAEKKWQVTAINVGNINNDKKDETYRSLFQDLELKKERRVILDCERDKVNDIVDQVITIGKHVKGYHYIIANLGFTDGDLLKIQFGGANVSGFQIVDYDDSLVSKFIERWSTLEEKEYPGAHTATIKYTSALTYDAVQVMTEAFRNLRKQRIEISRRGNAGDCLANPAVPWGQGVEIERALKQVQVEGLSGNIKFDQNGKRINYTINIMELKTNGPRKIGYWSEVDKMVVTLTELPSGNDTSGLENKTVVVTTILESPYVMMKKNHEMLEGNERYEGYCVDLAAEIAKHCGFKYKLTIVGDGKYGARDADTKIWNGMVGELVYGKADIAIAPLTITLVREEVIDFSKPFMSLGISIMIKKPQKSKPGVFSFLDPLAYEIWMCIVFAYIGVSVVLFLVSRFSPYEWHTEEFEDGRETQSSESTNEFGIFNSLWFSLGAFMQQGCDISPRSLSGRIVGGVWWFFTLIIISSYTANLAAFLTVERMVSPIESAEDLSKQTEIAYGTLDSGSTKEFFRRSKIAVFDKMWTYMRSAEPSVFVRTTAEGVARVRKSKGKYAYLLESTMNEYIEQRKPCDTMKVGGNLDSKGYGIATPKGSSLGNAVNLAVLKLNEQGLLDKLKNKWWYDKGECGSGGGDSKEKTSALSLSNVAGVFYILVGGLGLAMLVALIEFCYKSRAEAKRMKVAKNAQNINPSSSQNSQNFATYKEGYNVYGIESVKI
UniProt Q9Z2W9: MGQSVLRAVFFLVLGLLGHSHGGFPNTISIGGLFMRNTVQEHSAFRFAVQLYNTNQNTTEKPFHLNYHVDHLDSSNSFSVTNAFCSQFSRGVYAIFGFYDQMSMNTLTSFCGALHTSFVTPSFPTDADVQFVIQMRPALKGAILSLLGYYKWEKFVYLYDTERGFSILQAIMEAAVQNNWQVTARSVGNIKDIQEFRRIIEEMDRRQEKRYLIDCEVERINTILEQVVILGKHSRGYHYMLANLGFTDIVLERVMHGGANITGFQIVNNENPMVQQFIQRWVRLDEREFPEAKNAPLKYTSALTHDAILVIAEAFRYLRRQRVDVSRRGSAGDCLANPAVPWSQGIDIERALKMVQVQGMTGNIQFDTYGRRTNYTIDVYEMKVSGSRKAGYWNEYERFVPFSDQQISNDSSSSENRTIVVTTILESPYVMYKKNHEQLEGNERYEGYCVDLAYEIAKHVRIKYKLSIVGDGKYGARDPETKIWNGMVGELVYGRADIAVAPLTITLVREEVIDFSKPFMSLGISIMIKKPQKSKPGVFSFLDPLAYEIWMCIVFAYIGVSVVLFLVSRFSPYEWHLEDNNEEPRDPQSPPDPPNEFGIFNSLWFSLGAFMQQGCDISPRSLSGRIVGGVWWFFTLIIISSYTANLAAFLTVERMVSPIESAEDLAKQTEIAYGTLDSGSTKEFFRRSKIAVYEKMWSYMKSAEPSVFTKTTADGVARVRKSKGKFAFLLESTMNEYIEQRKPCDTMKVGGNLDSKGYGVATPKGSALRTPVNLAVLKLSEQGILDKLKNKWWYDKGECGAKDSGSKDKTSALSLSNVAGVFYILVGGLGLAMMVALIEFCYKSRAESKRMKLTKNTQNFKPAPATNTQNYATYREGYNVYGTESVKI
UniProt Q66HL2: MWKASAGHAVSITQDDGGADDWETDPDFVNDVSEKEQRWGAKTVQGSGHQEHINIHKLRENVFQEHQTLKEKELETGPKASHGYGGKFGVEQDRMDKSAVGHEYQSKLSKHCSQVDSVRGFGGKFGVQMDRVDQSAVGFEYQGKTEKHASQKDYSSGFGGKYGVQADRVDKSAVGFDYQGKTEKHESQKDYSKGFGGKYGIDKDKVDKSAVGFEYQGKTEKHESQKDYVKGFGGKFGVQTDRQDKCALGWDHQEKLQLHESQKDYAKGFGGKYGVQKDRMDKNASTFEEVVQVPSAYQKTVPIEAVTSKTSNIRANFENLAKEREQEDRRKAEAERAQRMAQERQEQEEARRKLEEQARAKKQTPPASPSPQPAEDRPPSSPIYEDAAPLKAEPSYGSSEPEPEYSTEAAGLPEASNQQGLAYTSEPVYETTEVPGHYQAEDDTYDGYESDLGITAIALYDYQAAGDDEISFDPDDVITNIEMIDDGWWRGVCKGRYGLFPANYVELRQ
GST-cortactin (1-80 aa): residues 1-80 of Q66HL2
GST-cortactin (284-450 aa): residues 284-450 of Q66HL2
GST-cortactin (451-509 aa): residues 451-509 of Q66HL2
UniProt Q60598: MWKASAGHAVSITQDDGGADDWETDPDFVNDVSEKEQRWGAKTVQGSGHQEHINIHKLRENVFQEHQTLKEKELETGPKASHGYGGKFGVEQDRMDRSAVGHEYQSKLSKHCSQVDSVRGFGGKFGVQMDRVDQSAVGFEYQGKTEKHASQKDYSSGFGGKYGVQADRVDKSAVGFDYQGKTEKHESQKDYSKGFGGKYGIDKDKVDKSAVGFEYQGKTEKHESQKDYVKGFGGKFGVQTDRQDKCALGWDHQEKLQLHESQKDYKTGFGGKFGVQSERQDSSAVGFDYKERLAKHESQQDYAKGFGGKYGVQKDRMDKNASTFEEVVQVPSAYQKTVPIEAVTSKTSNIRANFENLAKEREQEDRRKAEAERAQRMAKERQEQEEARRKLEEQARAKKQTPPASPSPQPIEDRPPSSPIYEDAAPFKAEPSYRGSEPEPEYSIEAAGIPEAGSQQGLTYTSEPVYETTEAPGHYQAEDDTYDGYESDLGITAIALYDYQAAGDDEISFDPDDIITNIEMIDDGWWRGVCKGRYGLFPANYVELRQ

The target in experiment [1] is glutamate receptor 2/3 (GluR2/3) of MIN6 cells (mouse (endogenous in MIN6)) (UniProt P23819+Q9Z2W9). Put plainly: co-IP; MIN6 cell lysate (1% Triton X-100, 1 mM EDTA, pH 7.9), 2.5 mg extract; immunoprecipitated with 5 μg polyclonal anti-intracellular GluR2/3 antibody or pre-immune IgG and protein G; Western blot with monoclonal anti-cortactin antibody.
In experiment [2] the target is GST-tagged full-length cortactin (rat) (UniProt Q66HL2). Nature of the experiment: pull-down; 400 μg full-length GST-cortactin bound to glutathione beads, incubated with 2.5 mg MIN6 cell lysate (150 mM NaCl, 10 mM Tris-HCl, 0.5 mM EDTA, 10 mM NaF, 1% Triton X-100, pH 7.4) for 1 h; Western blot for GluR2/3; only the target purified. Background: Immunoblotting shows a protein as a band on a membrane.

Experiment [3] deals with GST-cortactin (451-509 aa) (rat) (UniProt Q66HL2). Put plainly: condition: 400 μg GST-fusion protein with 2.5 mg mouse brain extract; pull-down; 400 μg GST-fusion proteins of cortactin bound to glutathione-Sepharose beads, incubated with 2.5 mg mouse brain extract in lysis buffer (22.5 mM HEPES-NaOH, 150 mM NaCl, 1% Triton X-100, pH 7.4) at 4°C for 1 h; Western blot with anti-intracellular GluR2/3 antibody; only the target purified.

Experiment [4] concerns the target GST-cortactin (1-80 aa) (rat) (UniProt Q66HL2). Described as above.
Experiment [5] addresses GST-cortactin (284-450 aa) (rat) (UniProt Q66HL2). Described as above.
In experiment [6] the target is GST-tagged full-length cortactin (rat) (UniProt Q66HL2). Nature of the experiment: pull-down; 400 μg GST-fusion proteins of cortactin bound to glutathione-Sepharose beads, incubated with 2.5 mg mouse brain extract in lysis buffer (22.5 mM HEPES-NaOH, 150 mM NaCl, 1% Triton X-100, pH 7.4) at 4°C for 1 h; Western blot with anti-intracellular GluR2/3 antibody; only the target purified.

As to “cortactin of MIN6 cells (from UniProt Q60598 1-546)”, the binding entry in experiment [1] is “binds”.
Take “glutamate receptor 2/3 (GluR2/3) of MIN6 cells (from UniProt P23819 25-883; Q9Z2W9 23-888)”: in experiment [2], the binding entry is on record as “binds”.
For the substance “glutamate receptor 2/3 (GluR2/3) of mouse brain extract (from UniProt P23819 25-883; Q9Z2W9 23-888)”, the binding result in experiment [3] is recorded as “no binding”; in experiment [4] it was “no binding”; in experiment [5], “no binding”; in experiment [6], “binds”.

The values are drawn from article PMC10511061.
